Consider eleven molecules from publication PMC4330371, “Interaction between the RNA-dependent ATPase and poly(A) polymerase subunits of the TRAMP complex is mediated by short peptides and important for snoRNA processing” (Nucleic Acids Research, 2015).

No constants are given. Whether binding was seen depends on the method and setting. Some entries that bind do so weakly or less than the wild type.

The chains are these.
T1: Mtr4 (yeast two-hybrid plasmid pAV745) (S. cerevisiae) (UniProt P47047)
T1 sequence: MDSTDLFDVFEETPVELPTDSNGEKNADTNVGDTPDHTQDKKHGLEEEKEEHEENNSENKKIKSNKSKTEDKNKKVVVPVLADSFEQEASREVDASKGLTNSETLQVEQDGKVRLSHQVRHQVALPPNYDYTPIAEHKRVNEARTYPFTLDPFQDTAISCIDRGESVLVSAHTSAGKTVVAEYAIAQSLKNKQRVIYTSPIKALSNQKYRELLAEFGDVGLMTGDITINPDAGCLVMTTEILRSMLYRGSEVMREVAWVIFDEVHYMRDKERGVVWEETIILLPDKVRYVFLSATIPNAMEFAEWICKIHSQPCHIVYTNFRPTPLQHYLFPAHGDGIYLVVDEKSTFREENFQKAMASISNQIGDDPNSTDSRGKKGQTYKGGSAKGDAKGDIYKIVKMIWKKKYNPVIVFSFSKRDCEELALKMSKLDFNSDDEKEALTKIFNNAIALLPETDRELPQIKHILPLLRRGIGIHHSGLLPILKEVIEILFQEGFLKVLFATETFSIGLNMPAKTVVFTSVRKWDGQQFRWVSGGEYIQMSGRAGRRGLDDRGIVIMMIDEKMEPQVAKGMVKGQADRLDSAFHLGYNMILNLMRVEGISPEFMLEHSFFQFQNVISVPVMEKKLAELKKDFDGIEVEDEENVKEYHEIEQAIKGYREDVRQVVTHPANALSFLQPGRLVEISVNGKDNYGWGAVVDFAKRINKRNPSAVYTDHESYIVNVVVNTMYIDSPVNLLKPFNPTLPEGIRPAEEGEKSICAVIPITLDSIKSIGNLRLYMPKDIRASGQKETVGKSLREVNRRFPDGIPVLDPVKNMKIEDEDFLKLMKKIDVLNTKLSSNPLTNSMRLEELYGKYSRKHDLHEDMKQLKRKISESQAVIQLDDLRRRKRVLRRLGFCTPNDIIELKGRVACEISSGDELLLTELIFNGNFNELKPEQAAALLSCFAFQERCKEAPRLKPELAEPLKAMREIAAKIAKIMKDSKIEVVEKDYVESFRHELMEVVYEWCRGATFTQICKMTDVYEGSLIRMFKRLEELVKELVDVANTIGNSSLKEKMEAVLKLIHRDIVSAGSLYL

B1: Trf5 53-139 (yeast two-hybrid plasmid pAV767) (domain or fragment, UniProt P48561 53-139)
chain: AIDVEDDDTFGNLVLMENDKSDVDIPVIEEVTSSEDEQRAESSKRNNSLEDNQDFIAFSDSSEDETEQIKEDDDERSSFLLTDEHEV
B2: Trf5 53-184 (yeast two-hybrid plasmid pAV762) (domain or fragment, UniProt P48561 53-184)
chain: AIDVEDDDTFGNLVLMENDKSDVDIPVIEEVTSSEDEQRAESSKRNNSLEDNQDFIAFSDSSEDETEQIKEDDDERSSFLLTDEHEVSKLTSQQSLNTESACNVEYPWIRNHCHSKQRRIADWLTSEIKDFV
B3: Trf5 98-199 (yeast two-hybrid plasmid pAV761) (domain or fragment, UniProt P48561 98-199)
chain: NNSLEDNQDFIAFSDSSEDETEQIKEDDDERSSFLLTDEHEVSKLTSQQSLNTESACNVEYPWIRNHCHSKQRRIADWLTSEIKDFVHYISPSKNEIKCRNR
B4: Trf5 53-169 (yeast two-hybrid plasmid pAV763) (domain or fragment, UniProt P48561 53-169)
chain: AIDVEDDDTFGNLVLMENDKSDVDIPVIEEVTSSEDEQRAESSKRNNSLEDNQDFIAFSDSSEDETEQIKEDDDERSSFLLTDEHEVSKLTSQQSLNTESACNVEYPWIRNHCHSKQ
B5: Trf5 53-124 (yeast two-hybrid plasmid pAV768) (domain or fragment, UniProt P48561 53-124)
chain: AIDVEDDDTFGNLVLMENDKSDVDIPVIEEVTSSEDEQRAESSKRNNSLEDNQDFIAFSDSSEDETEQIKED
B6: Trf5 53-154 (yeast two-hybrid plasmid pAV764) (domain or fragment, UniProt P48561 53-154)
chain: AIDVEDDDTFGNLVLMENDKSDVDIPVIEEVTSSEDEQRAESSKRNNSLEDNQDFIAFSDSSEDETEQIKEDDDERSSFLLTDEHEVSKLTSQQSLNTESAC
B7: Trf5 83-199 (yeast two-hybrid plasmid pAV760) (domain or fragment, UniProt P48561 83-199)
chain: VTSSEDEQRAESSKRNNSLEDNQDFIAFSDSSEDETEQIKEDDDERSSFLLTDEHEVSKLTSQQSLNTESACNVEYPWIRNHCHSKQRRIADWLTSEIKDFVHYISPSKNEIKCRNR
B8: Trf5 68-199 (yeast two-hybrid plasmid pAV759) (domain or fragment, UniProt P48561 68-199)
chain: MENDKSDVDIPVIEEVTSSEDEQRAESSKRNNSLEDNQDFIAFSDSSEDETEQIKEDDDERSSFLLTDEHEVSKLTSQQSLNTESACNVEYPWIRNHCHSKQRRIADWLTSEIKDFVHYISPSKNEIKCRNR
B9: Trf5 53-199 (yeast two-hybrid plasmid pAV744) (domain or fragment, UniProt P48561 53-199)
chain: AIDVEDDDTFGNLVLMENDKSDVDIPVIEEVTSSEDEQRAESSKRNNSLEDNQDFIAFSDSSEDETEQIKEDDDERSSFLLTDEHEVSKLTSQQSLNTESACNVEYPWIRNHCHSKQRRIADWLTSEIKDFVHYISPSKNEIKCRNR
B10: Trf5 118-199 (yeast two-hybrid plasmid pAV766) (domain or fragment, UniProt P48561 118-199)
chain: TEQIKEDDDERSSFLLTDEHEVSKLTSQQSLNTESACNVEYPWIRNHCHSKQRRIADWLTSEIKDFVHYISPSKNEIKCRNR

The assay concerns the target T1, Mtr4 (yeast two-hybrid plasmid pAV745) (S. cerevisiae). Description: two-hybrid; MTR4 TRP1 plasmids in PJ69-4α crossed to TRF5 LEU2 (pOAD) plasmids in PJ69-4a; diploids serially diluted and spotted on SC-TRP-LEU, SC-ADE and SC-HIS (with 10 mM 3-AT).
Regarding B1, the binding result is “binds”. With B2 the entry was “binds”; with B3, “binds”; with B4, “binds”. As for B5, the binding entry is “binds”. With B6 the entry was “binds”; with NNSLEDNQDFIAFSDSSEDE (peptide, UniProt P48561 98-117) [Trf5 98-117 (yeast two-hybrid construct)], “binds”. B7: the binding result was “binds”. With B8 the entry was “binds”. With B9 the entry was “binds”; with B10, “no binding”.
